The shares of active, inactive and inconclusive entries below differ from those in the screen. For some of these results: Potencies of inconclusive entries are left out as doubtful fits. Activity calls are given as the source filed them. Calls follow the shape of the dose curve; as a rule, active = well fitted curve in the direction sought with a large enough effect; inconclusive = small, poorly fitted or top-dose-only effect, or another doubt; inactive = no such curve, though single readings can be large; an effect the other way counts as inactive or inconclusive.
Key:
[1] = target: Rap guanine nucleotide exchange factor 3 (Homo sapiens) (UniProt O95398); assay: Confirmatory qHTS for antagonist of cAMP-regulated guanine nucleotide exchange factor 3 (EPAC1) (AID 1645880); conditions: EPAC1 Rap1B-BODIPY-GDP exchange, fluorescence; activity, negative = inhibition: at 115 µM (top of the series); also: nearly all actives have a fitted effect of over 55% in size;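 as to activity, negative = inhibition: plate controls were DMSO only for no effect and full effect of the ATA control for full effect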
In short: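 Released BODIPY-GDP fluoresces less than Rap1-bound BODIPY-GDP; the signal is followed at 480/540 nm at 5-min intervals over 30 min, after 5 min at room temperature. Reactions contain 100 nM EPAC1, 250 nM RAP1B-BODIPY-GDP and 50 uM GDP; results are normalized to ATA and DMSO.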

[2] = target: Rap guanine nucleotide exchange factor 4 (Homo sapiens) (UniProt Q8WZA2); assay: Confirmatory qHTS for agonist of cAMP-regulated guanine nucleotide exchange factor 4 (EPAC2) (AID 1645884); conditions: EPAC2 GEF activity, Rap1B-BODIPY-GDP fluorescence; activation: at 154 µM (top of the series), percent relative to cAMP agonist control;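 also: nucleotide exchange releases bodipy-GDP from Rap1 and this lowers its fluorescence; nearly all actives have a fitted effect of over 65% in size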; as to activation: % is scaled to controls: 0 for no effect and ±100 for the full control effect
[3] = target: Rap guanine nucleotide exchange factor 3 (Homo sapiens) (UniProt O95398); assay: Counterscreen qHTS for agonist of cAMP-regulated guanine nucleotide exchange factor 3 (EPAC1) (AID 1645889); conditions: EPAC1 Rap1B-BODIPY-GDP exchange, fluorescence; activation: at 154 µM (top of the series) unless noted; also: nearly all actives have a fitted effect of over 40% in size; as to activation: % of control where 0% means no effect
In short: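 Rap1B–BODIPY-GDP (250 nM) with 50 uM GDP; compounds pin-transferred to 9.74 nM–152 uM final (activator) or from 7.32 nM upwards (inhibitor). Fluorescence Ex/Em 480/540 nm read at 5 and 30 min, then after adding cAMP or buffer, at room temperature.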

[4] = target: DNA polymerase iota (Homo sapiens) (UniProt Q9UNA4); assay: qHTS for Inhibitors of Polymerase Iota: Confirmatory Assay for Cherry-picked Compounds (AID 720496); conditions: Pol iota primer extension, TAMRA/BHQ fluorescence
In short: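 Extension of a quenched TAMRA-reporter/BHQ-2-template DNA substrate (50 nM) by 10 nM Pol iota after 15 min compound preincubation. Strand-displacement fluorescence (525/598 nm) was read kinetically at 0 and 10 min. Buffer-only wells served as negative control.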

[5] = qHTS for Inhibitors of WRN Helicase: Thiazole Orange DNA Binding Counterscreen (AID 720499);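 also: drop in dye fluorescence marks compound binding to DNA; nearly all actives have a fitted effect of over 60% in size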
In short: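 Here, compounds that displace thiazole orange (100 nM) from unlabeled DNA (50 nM) lower fluorescence, read at excitation 480 nm and emission 530 nm after a 15 min room-temperature incubation.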

[6] = qHTS Assay for the Inhibitors of L3MBTL1: Hit Validationin AlphaScreen Counterscreen (AID 602224)
In short: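 AlphaScreen signal was read after compounds, 1 nM biotin-His6 peptide and 10 ug/mL each of streptavidin donor and nickel acceptor beads incubated 30 min at room temperature in darkness, following a 15 min compound–peptide preincubation.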

[7] = target: DNA polymerase eta (Homo sapiens) (UniProt Q9Y253); assay: qHTS for Inhibitors of Polymerase Eta: Confirmatory Assay for Cherry-picked Compounds (AID 720502); conditions: Pol eta primer extension, TAMRA/BHQ fluorescence, 10 min
In short: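 Readout: TAMRA dequenching, ex 525/em 598 nm, read at 0 and 10 min. Enzyme: 10 nM human Pol eta, preincubated with compound 15 min RT. Substrate: 50 nM final annealed primer/reporter/template duplex.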

[8] = qHTS for Inhibitors of the vitamin D receptor (VDR): Hit Validation using a Texas Red Assay (AID 602201)
In short: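 Fluorescence polarization with 1.5 uM VDR-LBD, LG19078 and 7 nM Texas Red (final). After 2 hours at ambient temperature, read at Ex 595 nm/Em 615 nm.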

[9] = target: Vitamin D3 receptor (Homo sapiens) (UniProt P11473); assay: qHTS for Inhibitors of the vitamin D receptor (VDR): Hit Validation using a Beta-Lactamase Assay (AID 602202)
In short: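 Stably transfected HEK293 cells expressing VDR-GAL4 DNA-binding domain fusion with UAS-driven beta-lactamase reporter, activated by agonist LG190178; compounds incubated 18 h, then FRET beta-lactam substrate 2 h; cleaved substrate read at 447 nm emission.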

[10] = qHTS for Inhibitors of the vitamin D receptor (VDR): Hit Validation using a Cytotoxicity Assay (AID 602204);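 also: cells co-treated with VDR agonist LG190178 at 300 nM; nearly all actives have a fitted effect of over 75% in size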
In short: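 Luminescence proportional to cellular ATP reports viability. Cells (20,000 per well) rested 4 h, were treated with compounds for 18 h, then incubated 30 min with detection reagent. Controls: cycloheximide (high) and DMSO.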
Potency is read from the fitted curve at half-maximal effect; tags tell the direction and shape of the fitted curve.

UniProt Q8WZA2, sequence (Q8WZA2 whole entry, looked up): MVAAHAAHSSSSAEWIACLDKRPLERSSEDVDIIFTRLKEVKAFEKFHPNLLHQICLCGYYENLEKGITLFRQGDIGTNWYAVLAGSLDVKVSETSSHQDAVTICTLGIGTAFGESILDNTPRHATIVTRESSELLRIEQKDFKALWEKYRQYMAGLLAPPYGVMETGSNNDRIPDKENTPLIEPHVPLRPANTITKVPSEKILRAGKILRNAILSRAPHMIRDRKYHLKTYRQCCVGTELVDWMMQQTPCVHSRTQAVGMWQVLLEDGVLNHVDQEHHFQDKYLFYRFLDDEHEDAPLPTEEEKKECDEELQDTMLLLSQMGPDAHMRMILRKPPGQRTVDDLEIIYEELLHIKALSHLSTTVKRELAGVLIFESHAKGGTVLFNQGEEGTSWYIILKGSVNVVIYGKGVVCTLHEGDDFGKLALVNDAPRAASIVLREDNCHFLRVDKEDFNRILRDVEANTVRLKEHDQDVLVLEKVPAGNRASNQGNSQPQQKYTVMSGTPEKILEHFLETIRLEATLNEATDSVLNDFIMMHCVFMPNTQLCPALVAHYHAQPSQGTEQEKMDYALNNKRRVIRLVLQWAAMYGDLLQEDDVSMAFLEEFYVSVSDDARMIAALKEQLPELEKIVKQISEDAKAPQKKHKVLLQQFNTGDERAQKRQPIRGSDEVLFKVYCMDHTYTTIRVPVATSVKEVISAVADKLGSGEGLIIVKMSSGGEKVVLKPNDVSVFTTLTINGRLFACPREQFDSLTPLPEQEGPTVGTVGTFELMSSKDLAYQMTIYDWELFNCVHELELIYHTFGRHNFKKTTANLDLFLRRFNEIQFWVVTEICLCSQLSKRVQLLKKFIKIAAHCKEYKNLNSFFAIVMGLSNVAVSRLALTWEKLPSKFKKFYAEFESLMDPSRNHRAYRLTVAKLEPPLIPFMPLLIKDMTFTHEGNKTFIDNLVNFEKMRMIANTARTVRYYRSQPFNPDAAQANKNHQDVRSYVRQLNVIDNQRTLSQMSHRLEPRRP
UniProt O95398, sequence (O95398 whole entry, looked up): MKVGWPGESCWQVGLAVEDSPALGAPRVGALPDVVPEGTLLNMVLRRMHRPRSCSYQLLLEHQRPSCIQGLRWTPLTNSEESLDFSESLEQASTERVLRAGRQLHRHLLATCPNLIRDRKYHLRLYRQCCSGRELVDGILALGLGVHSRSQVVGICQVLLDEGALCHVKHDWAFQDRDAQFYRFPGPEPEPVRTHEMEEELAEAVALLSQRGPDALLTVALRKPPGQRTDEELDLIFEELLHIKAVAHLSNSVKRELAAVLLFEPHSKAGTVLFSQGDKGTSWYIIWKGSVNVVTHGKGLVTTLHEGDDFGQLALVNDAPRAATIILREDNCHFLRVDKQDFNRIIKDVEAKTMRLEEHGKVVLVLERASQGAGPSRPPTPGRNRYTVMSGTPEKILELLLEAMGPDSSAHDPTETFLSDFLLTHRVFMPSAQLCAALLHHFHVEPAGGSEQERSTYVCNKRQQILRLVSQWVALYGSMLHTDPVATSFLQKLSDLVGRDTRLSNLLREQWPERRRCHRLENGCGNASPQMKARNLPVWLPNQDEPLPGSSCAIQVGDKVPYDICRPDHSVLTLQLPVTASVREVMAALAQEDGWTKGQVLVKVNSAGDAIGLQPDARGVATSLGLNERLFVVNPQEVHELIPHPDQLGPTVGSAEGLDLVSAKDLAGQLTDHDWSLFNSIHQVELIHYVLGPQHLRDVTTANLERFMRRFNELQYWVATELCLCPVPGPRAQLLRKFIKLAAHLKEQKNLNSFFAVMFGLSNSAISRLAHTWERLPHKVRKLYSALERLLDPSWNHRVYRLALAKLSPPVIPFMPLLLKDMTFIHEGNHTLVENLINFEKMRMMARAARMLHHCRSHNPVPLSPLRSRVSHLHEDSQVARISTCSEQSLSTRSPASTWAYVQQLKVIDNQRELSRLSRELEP
UniProt P11473, sequence (P11473 whole entry, looked up, the tested form may be a part): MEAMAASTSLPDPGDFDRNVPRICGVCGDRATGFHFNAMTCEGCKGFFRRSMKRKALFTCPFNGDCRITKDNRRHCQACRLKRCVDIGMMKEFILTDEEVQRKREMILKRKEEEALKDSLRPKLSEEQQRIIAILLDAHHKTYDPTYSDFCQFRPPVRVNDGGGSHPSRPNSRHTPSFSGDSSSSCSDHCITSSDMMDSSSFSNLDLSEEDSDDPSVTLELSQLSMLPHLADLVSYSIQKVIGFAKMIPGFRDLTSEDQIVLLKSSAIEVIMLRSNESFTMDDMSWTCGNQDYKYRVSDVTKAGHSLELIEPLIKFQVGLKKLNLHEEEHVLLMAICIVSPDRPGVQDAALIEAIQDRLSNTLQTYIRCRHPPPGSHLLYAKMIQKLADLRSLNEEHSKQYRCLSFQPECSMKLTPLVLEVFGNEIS
UniProt Q9UNA4, sequence (Q9UNA4 whole entry, looked up): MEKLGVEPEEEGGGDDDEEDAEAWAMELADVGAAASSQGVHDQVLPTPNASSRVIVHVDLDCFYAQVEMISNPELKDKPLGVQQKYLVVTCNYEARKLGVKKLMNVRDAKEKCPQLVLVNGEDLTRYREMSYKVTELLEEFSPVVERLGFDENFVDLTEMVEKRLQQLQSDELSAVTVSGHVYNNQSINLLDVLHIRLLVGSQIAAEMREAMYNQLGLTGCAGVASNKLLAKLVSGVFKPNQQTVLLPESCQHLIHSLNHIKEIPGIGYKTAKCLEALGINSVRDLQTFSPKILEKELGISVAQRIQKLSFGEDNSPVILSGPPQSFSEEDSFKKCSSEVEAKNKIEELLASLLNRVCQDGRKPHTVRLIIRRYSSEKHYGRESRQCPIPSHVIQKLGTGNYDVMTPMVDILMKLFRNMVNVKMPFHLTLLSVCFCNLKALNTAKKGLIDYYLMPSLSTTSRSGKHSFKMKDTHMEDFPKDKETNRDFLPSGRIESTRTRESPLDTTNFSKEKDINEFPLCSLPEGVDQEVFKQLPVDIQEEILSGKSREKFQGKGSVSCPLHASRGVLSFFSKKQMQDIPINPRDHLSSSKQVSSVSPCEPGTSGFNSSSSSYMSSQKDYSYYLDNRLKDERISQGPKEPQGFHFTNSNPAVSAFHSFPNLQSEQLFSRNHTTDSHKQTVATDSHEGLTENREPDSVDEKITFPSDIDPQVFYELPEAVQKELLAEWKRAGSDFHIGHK
UniProt Q9Y253, sequence (Q9Y253 whole entry, looked up): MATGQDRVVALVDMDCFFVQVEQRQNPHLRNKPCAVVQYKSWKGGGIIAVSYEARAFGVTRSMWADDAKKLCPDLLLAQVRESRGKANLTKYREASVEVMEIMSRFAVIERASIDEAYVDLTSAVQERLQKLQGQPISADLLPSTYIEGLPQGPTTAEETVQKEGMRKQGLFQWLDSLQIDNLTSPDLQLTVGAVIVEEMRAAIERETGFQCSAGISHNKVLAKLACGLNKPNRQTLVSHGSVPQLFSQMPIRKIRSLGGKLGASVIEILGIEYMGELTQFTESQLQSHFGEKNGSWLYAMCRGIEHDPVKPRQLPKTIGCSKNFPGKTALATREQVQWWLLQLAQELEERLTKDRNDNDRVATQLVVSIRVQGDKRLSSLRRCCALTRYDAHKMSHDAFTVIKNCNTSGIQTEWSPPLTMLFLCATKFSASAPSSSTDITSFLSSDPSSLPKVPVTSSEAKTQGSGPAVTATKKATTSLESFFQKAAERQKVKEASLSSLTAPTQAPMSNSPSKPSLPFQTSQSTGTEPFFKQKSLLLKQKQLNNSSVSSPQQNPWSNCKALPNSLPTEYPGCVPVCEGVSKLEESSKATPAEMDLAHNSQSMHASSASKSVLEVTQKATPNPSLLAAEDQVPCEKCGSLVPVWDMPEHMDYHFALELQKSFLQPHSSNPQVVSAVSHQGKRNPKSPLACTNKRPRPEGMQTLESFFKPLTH

## CC(=O)c1cccc(NC2c3ccccc3C(=O)N2Cc2ccc3c(c2)OCO3)c1 (configuration not stated)
[1]
  Potency: inactive
[2]
  Potency: inconclusive [activator, partial curve, poor fit]
[3]
  Potency: inconclusive [activator, partial curve, poor fit]

## Cc1ccc(C)c(CN2C(=O)C(O)(c3c[nH]c4ccccc34)c3ccccc32)c1 (configuration not stated)
[1]
  Potency: inconclusive [inhibitor, single point]
[2]
  Potency: inconclusive [activator, partial curve, poor fit]
[3]
  Potency: inconclusive [activator, full curve]

## CN(C)c1ccc(C(=O)Nc2sc(Nc3ccccc3)nc2C(N)=O)cc1
[4]
  Potency: inconclusive [inhibitor, partial curve, poor fit]
[1]
  Potency: inconclusive [inhibitor, single point]
[2]
  Potency: inactive
[3]
  activation: inconclusive: 61.1% [activator]

## O=C(CSc1nc2ccccc2o1)N/N=C/c1ccc(O)c(O)c1
[5]
  Potency: inconclusive [inhibitor, partial curve]
[1]
  Potency: inconclusive [inhibitor, full curve]
[2]
  Potency: inconclusive [activator, single point]
[3]
  Potency: inconclusive [activator, partial curve, poor fit]

## O=C(Nc1ccccc1C(F)(F)F)N1CCC(CN2CCc3ccccc3C2)CC1
[1]
  Potency: inactive
[2]
  Potency: inactive
[3]
  activation: inconclusive: 21.4% [activator]

## O=C(c1ccccc1Cc1ccccc1)N1CCN(S(=O)(=O)c2ccccc2Br)CC1
[1]
  Potency: inconclusive [inhibitor, partial curve, poor fit]
[2]
  Potency: inconclusive [activator, partial curve, poor fit]
[3]
  Potency: inconclusive [activator, partial curve, poor fit]

## CC(=O)c1ccc(NC(=O)CC2Nc3cccc4cccc(c34)NC2=O)cc1 (configuration not stated)
[6]
  Potency: inconclusive [inhibitor, single point]
[1]
  Potency: active: 75.7 µM
[2]
  Potency: inactive
[3]
  Potency: inconclusive [activator, partial curve]

## O=C(Nc1cccc(S(=O)(=O)NCc2ccco2)c1)c1cc(-c2ccccc2)nc2ccccc12
[1]
  Potency: inconclusive [inhibitor, partial curve]
[2]
  activation: inconclusive: 30.2% [activator]
[3]
  Potency: inconclusive [activator, full curve, poor fit]

## Cc1ccc(C)c(S(=O)(=O)/N=C2\C=C(NS(=O)(=O)c3ccccc3)C(=O)c3ccccc32)c1
[7]
  Potency: inconclusive [inhibitor, single point]
[1]
  Potency: active: 22.4 µM
[2]
  activation: inactive: 3.6% [at 17.1 µM, percent relative to cAMP agonist control]
[3]
  Potency: inconclusive [activator, full curve, poor fit]

## C[C@@]12C(=O)Nc3cc(F)ccc3C(=O)N1[C@H]1c3cc(Br)ccc3OC[C@@H]1[C@@H]2c1ccccc1
[1]
  Potency: inconclusive [inhibitor, full curve, poor fit]
[2]
  Potency: inactive
[3]
  Potency: inconclusive [activator, full curve, poor fit]

## CC1=NN(c2cccc(C(=O)O)c2)C(=O)/C1=C\C=C/c1ccccc1
[8]
  Potency: active: 5.62 µM
[9]
  Potency: active: 8.2 µM
[10]
  Potency: inconclusive [cytotoxic, partial curve, poor fit]
[1]
  Potency: inconclusive [inhibitor, full curve, poor fit]
[2]
  Potency: inactive
[3]
  activation: inconclusive: 34.2% [activator]

## CCOc1ccccc1C(=O)N1CCc2cc(OC)c(OC)cc2C1COc1ccc(OC)cc1 (configuration not stated)
[1]
  Potency: inconclusive [inhibitor, partial curve, poor fit]
[2]
  Potency: inconclusive [activator, partial curve, poor fit]
[3]
  activation: inconclusive: 31.8% [activator]

## CCN(CC)CC#CC(OC)(c1ccccc1)c1ccccc1
[1]
  Potency: inconclusive [inhibitor, partial curve]
[2]
  Potency: inactive
[3]
  activation: inconclusive: 46.7% [activator]

## CC(=O)NC(CCS(C)(=O)=O)C(=O)Nc1cccc(C)c1C (configuration not stated)
[1]
  Potency: inactive
[2]
  Potency: inactive
[3]
  Potency: inactive

## Clc1ccc(OCCn2c(-c3ccco3)nc3ccccc32)cc1
[1]
  Potency: inconclusive [inhibitor, partial curve, poor fit]
[2]
  Potency: inconclusive [activator, partial curve, poor fit]
[3]
  Potency: inconclusive [activator, partial curve, poor fit]

Source: PubChem BioAssay (NCATS)
